Data taken from the supplement of paper PMC11417369.
± gives the standard deviation of the averaged measurements. Some of the results follow.

tested on: PfAP2-I AP2 domain 3 (GST-tagged); assay: gcPBM binding intensity (ln(normalized median fluorescence intensity)); higher = stronger DNA binding
Procedure, shortened: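 An Agilent 4 × 180k array carrying primer-extended double-stranded 36-bp intergenic genomic probes and negative controls received GST-tagged P. falciparum DNA-binding domains expressed in E. coli, about 25 μg on average, for 1 h. The binding buffer contained 1× PBS, 1% milk, 0.2 mg/ml BSA, 0.5% salmon testes DNA and 0.03% Triton X-100. Binding intensity is the top Masliner-normalised natural-log median intensity across replicate spots of either probe orientation, read after Alexa488 anti-GST antibody staining and a 488 nm scan.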

Sequence | gcPBM binding intensity (ln)
AACAGACATACATACACACATACATACAGACATACA [CACACA_site1942] | 7.98 ± 0.41
ACATTCTATACATACACACCCACACCCAAAAAAAAA [CACACA_site863] | 9.29 ± 0.6
TATATATCAATATACACACACACATATTTATTTATA [CACACA_site6858] | 7.82 ± 0.23
AAATATAATATACAAAGTACTTTTTCATCTTATATA [XGTACX_site8771] | 7.71 ± 0.49
AGACAATAATATAATCGTACAATAAATAAAATAAAA [XGTACX_site5231] | 7.94 ± 0.28
TGAACAAAAAAAAATTGTACTTTTTTTTTAATATTT [XGTACX_site7172] | 7.57 ± 0.32
TTTCTTCGAAATAGAACACTTGTGCAAAATAAGCAA [XGTACX_negctrl_site361] | 9.9 ± 0.23
ATTTTTTTATAAAATTTTTATATAATTTATTATAAA [GTGCAC_negctrl_site96] | 7.39 ± 0.59
AAAAAAAACAATCTCATACACACTAGGGATTAATTA [CACACA_site1776] | 7.33 ± 0.52
TAAAGAGAAATATGTACATGCGAAAATGCCTTAAAT [TGCATGCA_site1050] | 8.18 ± 0.81
AACATAAAACGTAATATATTACAAATATAAACAATC [CACACA_negctrl_site1675] | 7.92 ± 0.81
TTACCATTTGAAAATTCACACACTTTATTTTGTTAT [CACACA_site3799] | 7.75 ± 0.77
ATATATATATATATATGTACATATTTTATAACTGTA [XGTACX_site5395] | 9.27 ± 0.48
ATTTATACATATAAACGTACATACATATATAATATT [XGTACX_site2969] | 7.88 ± 0.72
TGGATAAAATAAAAATGTACTTAACATTTATATTTT [XGTACX_site712] | 7.39 ± 0.37
AACAAAAGTAATTAAAAACAATACAAACATATGTTT [XGTACX_negctrl_site220] | 7.38 ± 0.64
ATCATTCAAAAATGCTGTACTAGGGGAAAACGTGTT [XGTACX_site7168] | 7.83 ± 0.52
ATATATAGGTTCCCTTTTCTTTTTTTTTTTTTTTTT [CACACA_negctrl_site1159] | 8.69 ± 0.57
ATGTATGAAAAAATGTGTACATAATTTTTTTTTTTT [XGTACX_site5444] | 7.88 ± 0.52
AAATAATATAAACATACACACACACCGATATATATA [CACACA_site8945] | 8.4 ± 0.54
TTTCTAATTTATATCACACACATATAAATATAGTAA [CACACA_site6210] | 7.87 ± 0.52
TTTGGAATATTAATTGTGCACTTAAAAAGTTAATTA | 11 ± 0.35
TTAAATGTTGGTTGTAGTACTCCATATGTTGTTTTA [XGTACX_site5312] | 7.88 ± 0.33
CTTATGTGCATACCTACACACTTACATATATATATA [CACACA_site8973] | 9.34 ± 0.49
